Results as given in article PMC2982165 (Nature Communications, 2010).

Target: T1, IscS_I314E/M315E (E. coli, UniProt P0A6B7 1-404, I314E | M315E)
T1 sequence: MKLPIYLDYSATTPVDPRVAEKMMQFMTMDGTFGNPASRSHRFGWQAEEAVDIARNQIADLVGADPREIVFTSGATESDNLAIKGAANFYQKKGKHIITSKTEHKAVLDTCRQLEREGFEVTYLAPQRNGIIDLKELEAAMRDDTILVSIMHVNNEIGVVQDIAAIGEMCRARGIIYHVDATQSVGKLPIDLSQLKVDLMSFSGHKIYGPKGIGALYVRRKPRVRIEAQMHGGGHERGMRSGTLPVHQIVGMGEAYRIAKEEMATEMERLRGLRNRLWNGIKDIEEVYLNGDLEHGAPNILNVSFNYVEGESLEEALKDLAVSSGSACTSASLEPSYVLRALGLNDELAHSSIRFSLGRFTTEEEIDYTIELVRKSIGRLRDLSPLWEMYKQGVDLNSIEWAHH
Experiment: NMR titration

B1: IscU (scaffold protein) (natural protein)
chain: AYSEKVIDHYENPRNVGSFDNNDENVGSGMVGAPACGDVMKLQIKVNDEGIIEDARFKTYGCGSAIASSSLVTEWVKGKSLDEAQAIKNTDIAEELELPPVKIHCSILAEDAIKAAIADYKSKREAK
modifications: 15N uniformly labelled in the NMR titrations of IscU
B1: binds.
